PubChem BioAssay AID1347073 (National Center for Advancing Translational Sciences (NCATS), 2019)
Among all 45,000 compounds or so, about 200 (0.44%) were called active. About 7% were inconclusive and are not listed. Calls follow the shape of the dose curve; as a rule, active = well fitted activation curve with a large enough effect; inconclusive = small, poorly fitted or top-dose-only effect; inactive = no such curve, though single readings can be large or run the other way. This is one part of the list.

experiment: qHTS of TDP-43 Inhibitors: NCGC Sytravon Library Screen; conditions: yeast TDP-43 toxicity rescue, BacTiter-Glo growth, 24 h; series mostly up to 46.1 µM; growth rescue (activation): at the top concentration; also: 0% is about no effect; nearly all actives have a fitted effect of over 55% in size
From the text: The goal of this project is to identify new chemical probes capable of reversing the toxicity associated with TDP-43 which is associated with frontotemporal lobar degeneration and amyotrophic lateral sclerosis. These compounds will provide a complementary approach to deciphering the tangled mechanisms of toxicity and protection that we have uncovered through genome-wide genetic screens and are beginning to uncover in a large-scale proteomics analysis with mass spectroscopy. To this end, a miniaturized assay was developed to be screened against the Molecular Libraries Small Molecule Repository (MLSMR) to discover TDP-43 inhibitors. Please note that in the set-up this yeast-based assay compounds that inhibit as TDP-43, have a read-out as activators. NIH Chemical Genomics Center [NCGC] NIH Molecular Libraries Probe Centers Network [MLPCN] Assay Submitter (PI): Susan Lindquist, Whitehead Institute/MIT MLPCN Grant: R21 NS060957
Dispense 2.5 microL yeast galactose medium per 1536-well plate, pin compound, dispense 2.5 microL TDP-43 expressing yeast in galactose medium at OD600=0.02 (pregrown in raffinose medium to mid-log phase) per well, incubate for 24 hr at 30 deg C, and cell growth will be measured using 5 microL of Bactiter/Glo reagent to entire plate and read using Luminescence Protocol in ViewLux.

SMILES	growth rescue (activation)
Cc1ccc(NC(=O)COC(=O)c2ccccc2Nc2ccccc2)cc1	inactive: 23.5%
CCOC(=O)C1=c2s/c(=C\c3ccncc3)c(=O)n2C(N)=C(C(=O)OC)C1c1ccncc1 (stereo not given)	inactive: -0.106%
O=C(O)Cc1ccc(NS(=O)(=O)c2c(Cl)cccc2Cl)cc1	inactive: 16.5%
CCCSc1ncnc2sc(C)c(C)c12	inactive: -0.572%
COCCOC(=O)C1=C(C)OC(N)=C(C#N)C1c1ccc2c(c1)OCO2 (stereo not given)	inactive: -17.3%
O=C(CSc1cccc[n+]1[O-])Nc1ccc(Br)cc1Br	inactive: 1.08%
COc1ccc(N(CCC#N)S(=O)(=O)c2cccc3nsnc23)cc1	inactive: -3.63%
COc1ccc(C(=O)NCc2ccc(C(=O)O)o2)cc1	inactive: -4.2%
CCCCc1ccc(-n2nnnc2SCC(=O)Nc2cc(OC)c([N+](=O)[O-])cc2C)cc1	inactive: 8.18%
CCOc1ccc(CCNS(=O)(=O)c2c(C)nc3scc(C)n3c2=O)cc1OCC	inactive: -11.7%
Cc1nc2cc(C(=O)OCC(=O)Nc3ccc(C#N)cc3)ccc2n1-c1ccccc1	inactive: 7.12%
COc1cc(C(=O)NC2CCCc3ccccc32)cc(OC)c1C (stereo not given)	inactive: 4.82%
CC(c1ccccc1)N1CCN(C(=O)CCl)CC1 (stereo not given)	inactive: 6.59%
Cc1cccc(OC(C)C(=O)OCC(=O)N2CCN(c3ccccc3)CC2)c1 (stereo not given)	inactive: 9.99%
O=C(CSc1nnc(Cc2ccccc2)n1-c1cccc(Cl)c1)NNC(=O)Cc1ccccc1	inactive: 11.6%
COc1cccc(NC(=O)C(Sc2nnc(Nc3ccccc3C)s2)c2ccccc2)c1 (stereo not given)	inactive: 7.55%
COc1ccccc1NS(=O)(=O)c1ccc(Cl)c(NC(=O)CN2C(=O)c3ccccc3C2=O)c1	inactive: -0.983%
CCOc1cc(C2C3=C(CCCC3=O)OC3=C2C(=O)CCC3)cc([N+](=O)[O-])c1O	inactive: 1.32%
Cc1ccc(S(=O)(=O)Nc2cc(C)cn(Cc3ccccc3)c2=O)cc1	inactive: 0.371%
Cc1ccc(S(=O)(=O)Nc2cc(C(F)(F)F)ccc2N2CCOCC2)cc1	inactive: 1.61%
COc1ccc(-n2ncc3c2ncn2nc(COc4ccc(Cl)cc4)nc32)cc1	inactive: 14.7%
O=C1N=c2ccc([N+](=O)[O-])cc2=C1c1sc(=O)[nH]c1O	inactive: 10.6%
O=C(NCCCN1CCOCC1)c1ccc2c(=O)n(Cc3cccc(Br)c3)c(=S)[nH]c2c1	inactive: 18.2%
COc1ccccc1CNc1ncnc2sccc12	inactive: 40.4%
CCn1c(CNC(=O)c2ccco2)nnc1SCC(=O)Nc1cc(F)ccc1C	inactive: 4.33%
Cc1c(C(=O)NCc2ccccc2)oc2c1C(=O)CCC2	inactive: -20.7%
CCCCNC(=O)/C=C/c1ccc(S(=O)(=O)Nc2ccc(OC)cc2)cc1	inactive: 10.9%
COc1ccc(N2CCN(C(=O)CN3C(=O)NC4(CCCCC4C)C3=O)CC2)cc1 (stereo not given)	inactive: -13.4%

SMILES	growth rescue (activation)
O=C(NCc1cccnc1)c1cc(C2CCCN(C(=O)c3cccs3)C2)on1 (stereo not given)	inactive: -18.2%
CSc1ccccc1NC(=O)N1CCC(CO)(CC2CCCCO2)CC1 (stereo not given)	inactive: 8.73%
COCCN(C(=S)Nc1c(C)cccc1C)C(C)c1cccnc1 (stereo not given)	inactive: 8.8%
COc1ccc(CN2CCC2(C)C(=O)NCc2ccc3c(c2)OCO3)c2ccccc12 (stereo not given)	inactive: 4.54%
O=C(c1ccccc1)N1CCN(C(=O)c2cc3nc(-c4ccccc4)cc(C(F)(F)F)n3n2)CC1	inactive: 15%
CCCn1c(SCC(=O)Nc2ccc(NC(C)=O)cc2)nc2c1c(=O)n(C)c(=O)n2C	inactive: 7.39%
O=C(NCc1ccco1)c1cc(-c2cccs2)nc2ccccc12	inactive: 3.84%
CCn1c(SCC(=O)N2CCC(C(N)=O)(N3CCCCC3)CC2)nnc1-c1ccccc1	inactive: 7.26%
CCc1ccc2[nH]c(=O)c(CN(CCN(C)C)C(=S)NCc3ccco3)cc2c1	inactive: 0.873%
COc1ccc(S(=O)(=O)NCc2ccccn2)c(C)c1C	inactive: 3.52%
C=CCNC(=S)Nc1ccc(N(C)C)cc1	inactive: -1.39%
O=CN1CCN(S(=O)(=O)c2ccc(S(=O)(=O)NC3CCCCC3)cc2)CC1	inactive: 0.129%
CCOC(=O)c1cc2c(ccn2C)n1Cc1ccccc1Cl	inactive: 14.3%
CCC1(C)CC(c2nc(-c3ccc(OC)cc3)cs2)CCS1 (stereo not given)	inactive: 2.79%
COc1ccccc1C(=O)NCc1nnc(SCC(=O)Nc2nccs2)n1C	inactive: -8.1%
CC(=O)Nc1nc(C)cs1	inactive: 0.911%
O=C(CSC1=NC(=O)C(c2ccccc2)C(=O)N1)Nc1ccccc1[N+](=O)[O-] (stereo not given)	inactive: 2.14%
COC(=O)COc1ccc2oc(-c3ccc(OC)cc3)cc(=O)c2c1	inactive: 12.6%
CCCCN(C=O)c1c(CC)nc2c(OCc3ccc(S(C)(=O)=O)cc3)cccn12	inactive: -18.7%
COC(=O)c1ccc(NC(=O)C(=O)N2CCN(C(=S)Nc3ccc(C)cc3)CC2)cc1	inactive: 26.8%
CC(C)(C)NS(=O)(=O)c1ccc(NC(=O)C2CCCCC2)cc1	inactive: 7.94%
COc1ccc(Nc2nnc(-c3ccccc3)c3ccccc23)cc1C(=O)N1CCCCC1	inactive: 6.16%
O=C(CCC1CCCN(C(=O)c2ccc3cc[nH]c3c2)C1)N1CCN(c2ccccn2)CC1 (stereo not given)	inactive: 0.443%
Cc1ccc(-n2c(C)cc(/C=c3/sc4nc5ccccc5n4c3=O)c2C)cc1	inactive: 11.8%
CCc1ccc(-c2nc(CS(=O)CC(=O)NCc3cccnc3)c(C)o2)cc1 (stereo not given)	inactive: -0.192%
CC(C)CCOCC(=O)Oc1ccccc1C(=O)O	inactive: -9.84%
N#CCC(=O)Nc1ccc(C(=O)N2CCN(c3ccccn3)CC2)cc1	inactive: 7.37%
